The whole screen tested about 110,000 compounds, of which about 230 (0.21%) showed an effect of 50% or more. The list shows a part of the results.
target: DPAP1 (Plasmodium falciparum, UniProt Q8IIJ9); assay: primary screen, percent inhibition; read by cleavage of a fluorogenic dipeptide substrate; higher = more effect of the substance; design: species or system P. falciparum D10 trophozoite lysates; single well
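Also: 30 min substrate incubation versus DMSO and 10 µM JCP410 controls.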

Chain of DPAP1 (Q8IIJ9 whole entry, looked up): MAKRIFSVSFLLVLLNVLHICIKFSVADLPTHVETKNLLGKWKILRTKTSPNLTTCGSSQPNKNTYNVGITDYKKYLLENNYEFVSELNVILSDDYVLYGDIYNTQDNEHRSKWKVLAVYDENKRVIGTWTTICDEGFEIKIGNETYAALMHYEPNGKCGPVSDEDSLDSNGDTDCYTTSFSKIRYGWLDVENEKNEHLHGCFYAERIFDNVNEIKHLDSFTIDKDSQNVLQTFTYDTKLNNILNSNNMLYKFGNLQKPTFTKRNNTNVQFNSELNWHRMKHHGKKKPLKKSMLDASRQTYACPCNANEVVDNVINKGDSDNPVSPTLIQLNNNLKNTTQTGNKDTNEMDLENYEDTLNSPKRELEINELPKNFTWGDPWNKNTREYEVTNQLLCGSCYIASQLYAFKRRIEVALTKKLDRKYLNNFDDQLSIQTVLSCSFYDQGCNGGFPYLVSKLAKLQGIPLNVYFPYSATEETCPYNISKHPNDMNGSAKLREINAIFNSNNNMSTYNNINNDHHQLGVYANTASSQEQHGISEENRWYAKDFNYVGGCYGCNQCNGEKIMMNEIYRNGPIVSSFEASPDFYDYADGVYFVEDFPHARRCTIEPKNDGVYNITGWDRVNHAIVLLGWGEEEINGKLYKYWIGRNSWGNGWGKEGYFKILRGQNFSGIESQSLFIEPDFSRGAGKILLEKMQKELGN

Row | Compound | % Inhibition @ 10 uM [%]
1 | Cc1nnc(SCc2ccc(F)cc2Cl)c2cc3occc3n12 | 3.88
2 | CCOC(=O)c1c(C)oc(N)c1C#N | -8.8
3 | COc1ccc(NC(=O)c2sc(Cl)nc2-c2ccccc2)cc1 | -3.45
4 | CCN(CC)c1ncnc2c1c(-c1ccccc1)cn2-c1ccc(F)cc1 | -4.28
5 | CN1CCC(O)(c2ccccc2)C(C(=O)c2ccccc2)C1 (centres unmarked) | 1.21
6 | O=C(ON1C(=O)c2ccccc2C1=O)c1ccco1 | 43.8
7 | O=C(NCCN1CCCCC1)c1ccccn1 | 11.9
8 | Cc1ccc2oc(-c3cc(NC(=O)c4nc[nH]n4)ccc3O)nc2c1 | -7.28
9 | COc1cc(CN2CCSCC2)cc([N+](=O)[O-])c1O | -0.828
10 | COc1ccc(/C=C2\SC(=O)N(CC(=O)N3CCCCC3)C2=O)cc1OC | -1.06
11 | Cc1nn(CC(O)COc2ccc3c(c2)CCC3)c(C)c1Cl (centres unmarked) | 2.99
12 | CSc1nnc(NC(=O)c2cc(=O)c3cc(C)ccc3o2)s1 | 0.248
13 | CCCCc1ccc(-n2c(C)cc(C=C3C(=O)NC(=O)NC3=O)c2C)cc1 | 1.91
14 | CC(C)C1C(=O)CC(c2ccccc2)NC1c1ccccc1 (centres unmarked) | -1.25
15 | Cc1cccc(C)c1OCC(=O)Nc1ccc(Br)cc1F | 5.67
16 | COc1cccc(NC(=O)CN(Cc2ccc(Cl)cc2)S(=O)(=O)c2ccc(Cl)cc2)c1 | -5.27
17 | OCCN1CCN(c2nc(N3CCCCC3)nc(N3CCCCC3)n2)CC1 | 0.605
18 | Cc1ccc(-c2nnc(C3CCN(S(=O)(=O)c4ccc(CC(C)C)cc4)CC3)o2)cc1 | -4.98
19 | N#C/C(=C\c1cc(Br)ccc1OCc1ccccc1)c1nn(CCO)c(N)c1C#N | 10.2
20 | COc1ccc(CNCCc2ccc(F)cc2)c(OC)c1C | 12.8
21 | CCCc1c(-c2ccccc2)nc2sc3c(c2c1N)CCCC3 | -0.436
22 | O=C(O)CS(=O)(=O)c1ccccc1C(=O)O | -2.03
23 | CN1CCCN(Cc2cccc(Oc3ccccc3)c2)CC1 | -1.86
24 | NS(=O)(=O)c1ccc(CNC(=O)c2ccc(Br)o2)cc1 | 2.32
25 | C#CCN1C(=O)S/C(=C\c2ccccc2OCC)C1=O | -1.51

Row | Compound | % Inhibition @ 10 uM [%]
26 | O=C(CCCN1C(=O)C(c2ccccc2)Oc2cccnc21)NCc1ccc2c(c1)OCO2 (centres unmarked) | 4.41
27 | Cc1cccc(NC(=O)c2cccc3c2-c2ccccc2C3=O)n1 | 12.7
28 | CC(C)NS(=O)(=O)c1ccc(OCC(=O)N2CCOCC2)cc1 | -1.1
29 | OCCC1CCCCN1C1CC2CCC1C2 (centres unmarked) | -5.44
30 | CC1CCN(C2CCN(C(=O)c3ccccc3F)CC2)CC1 | 0.222
31 | CCC(=O)NCCCc1nc2ccccc2n1Cc1ccc(C)cc1 | 2.73
32 | COC(=O)C1=CN(C)C=C(C(=O)OC)C1c1ccccc1OC(C)C | 1.86
33 | Cn1c(=O)c(-c2ccccc2)c(O)c2c(=O)n(-c3ccccc3)c(=O)n(-c3ccccc3)c21 | -1.07
34 | Cn1c(=O)[nH]c(=O)c2c1ncn2CCN1CCCCCC1 | 0.606
35 | O=[N+]([O-])c1ccc(N2CCOCC2)cc1[N+](=O)[O-] | -0.736
36 | N#CCNC(=O)C(Cc1c[nH]c2ccccc12)NC(=O)OCc1ccccc1 (centres unmarked) | -1.41
37 | C=CCN1C(=O)/C(=C/C=C/c2ccccc2)C(=O)NC1=S | 2.51
38 | CCOc1ccc(C2=C/C(=C/c3cccc(OC)c3OC)C(=O)O2)cc1 | 1.52
39 | CN(C)CCN(Cc1ccccc1)C(=O)Cn1ncc2c3ccccc3nc-2c1O | 3.72
40 | CC(NC(=O)c1cc(S(=O)(=O)N2CCOCC2)cn1C)c1ccc2c(c1)OCCO2 (centres unmarked) | 7.5
41 | O=C1/C(=C/c2ccccc2Cl)Cc2ccccc21 | -5.51
42 | COc1ccc2c(c1)-c1nc(C)sc1CC2 | -3.53
43 | O=C(Nc1ccccc1Cl)c1ccc2c(c1)C(=O)N(Cc1ccco1)C2=O | -1.38
44 | C/C(NCCc1ccc(Cl)cc1Cl)=C(\C#N)C(=O)NC1CCCCC1 | 2.17
45 | CC(C)c1ccc(-c2csc(NC(=O)C3CC3)n2)cc1 | 5.37
46 | COc1ccc(S(=O)(=O)NCC2CCCO2)cc1C(=O)O (centres unmarked) | -0.559
47 | Cc1cc(-c2ccc(C)c(S(=O)(=O)NCC3CCN(CCC(C)C)CC3)c2)on1 | 2.24
48 | Cc1cc(-c2ccc(NS(C)(=O)=O)c(C)c2)ccc1NS(C)(=O)=O | -5.6
49 | COc1ccccc1/C=C/c1nc(C#N)c(NCCCn2ccnc2)o1 | 3.94
50 | CSc1nc(O)c(Cc2cc(C(C)=O)ccc2OC(C)C)c(O)n1 | -1.55

From paper PMC6919601, “Identification of Plasmodium dipeptidyl aminopeptidase allosteric inhibitors by high throughput screening” (PLoS ONE, 2019)
